This passage reports binding results from article PMC7645679.

What all share (assay): fluorescent three-hybrid (F3H); GFP-tagged bait tethered to a LacO array by GFP nanobody–LacR in BHK-LacO cells; recruitment of mKate2-tagged prey read as Pearson correlation of green and red channels at the array; cells fixed 24 h after transfection
Experiment [1] concerns the target T1, CTCF ΔN(1–265), GFP fusion (F3H) (mouse) (UniProt Q61164).
T1 sequence: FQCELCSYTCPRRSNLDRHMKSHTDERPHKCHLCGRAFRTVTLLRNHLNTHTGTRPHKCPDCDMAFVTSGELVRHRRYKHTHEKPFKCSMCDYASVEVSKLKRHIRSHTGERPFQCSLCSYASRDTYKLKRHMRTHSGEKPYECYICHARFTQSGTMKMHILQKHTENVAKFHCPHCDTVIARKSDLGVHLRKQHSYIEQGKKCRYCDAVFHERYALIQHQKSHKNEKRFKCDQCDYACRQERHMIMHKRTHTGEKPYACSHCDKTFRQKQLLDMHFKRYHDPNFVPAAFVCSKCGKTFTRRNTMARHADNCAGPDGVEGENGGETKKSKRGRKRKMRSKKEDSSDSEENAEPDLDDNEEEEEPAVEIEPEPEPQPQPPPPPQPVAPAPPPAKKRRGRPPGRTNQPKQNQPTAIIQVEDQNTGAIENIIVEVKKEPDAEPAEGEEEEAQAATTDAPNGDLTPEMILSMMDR

The target of experiment [2] is T2, CTCF (mouse), GFP fusion tethered to the LacO array in the fluorescent three-hybrid assay (mouse) (UniProt Q61164).
T2 sequence: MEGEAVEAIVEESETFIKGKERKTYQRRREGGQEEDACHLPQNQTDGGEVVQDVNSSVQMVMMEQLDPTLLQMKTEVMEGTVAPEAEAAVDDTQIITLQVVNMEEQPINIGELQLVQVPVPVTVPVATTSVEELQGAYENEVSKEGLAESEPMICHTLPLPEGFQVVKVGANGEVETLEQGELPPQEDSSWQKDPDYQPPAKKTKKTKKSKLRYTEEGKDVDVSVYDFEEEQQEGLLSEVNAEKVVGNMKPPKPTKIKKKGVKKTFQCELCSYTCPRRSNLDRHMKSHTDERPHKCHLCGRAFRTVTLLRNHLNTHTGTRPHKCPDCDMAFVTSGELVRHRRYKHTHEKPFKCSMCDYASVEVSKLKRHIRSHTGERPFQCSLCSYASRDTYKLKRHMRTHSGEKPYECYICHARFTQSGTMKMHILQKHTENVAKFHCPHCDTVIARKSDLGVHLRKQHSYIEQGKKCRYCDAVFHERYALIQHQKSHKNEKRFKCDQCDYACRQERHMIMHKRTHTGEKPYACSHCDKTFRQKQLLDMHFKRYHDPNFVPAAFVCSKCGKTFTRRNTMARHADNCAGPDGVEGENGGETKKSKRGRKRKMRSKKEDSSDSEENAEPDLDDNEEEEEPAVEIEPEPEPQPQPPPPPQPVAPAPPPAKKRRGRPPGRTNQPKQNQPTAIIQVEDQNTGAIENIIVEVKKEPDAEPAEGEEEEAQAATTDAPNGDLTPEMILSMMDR

Experiment [3] addresses T3, CTCF N(13–33) fused to eGFP (mouse) (UniProt Q61164).
T3 sequence: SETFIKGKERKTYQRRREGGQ

The target in experiment [4] is T4, BORIS/CTCFL, GFP fusion (F3H) (UniProt A2APF3).
T4 sequence: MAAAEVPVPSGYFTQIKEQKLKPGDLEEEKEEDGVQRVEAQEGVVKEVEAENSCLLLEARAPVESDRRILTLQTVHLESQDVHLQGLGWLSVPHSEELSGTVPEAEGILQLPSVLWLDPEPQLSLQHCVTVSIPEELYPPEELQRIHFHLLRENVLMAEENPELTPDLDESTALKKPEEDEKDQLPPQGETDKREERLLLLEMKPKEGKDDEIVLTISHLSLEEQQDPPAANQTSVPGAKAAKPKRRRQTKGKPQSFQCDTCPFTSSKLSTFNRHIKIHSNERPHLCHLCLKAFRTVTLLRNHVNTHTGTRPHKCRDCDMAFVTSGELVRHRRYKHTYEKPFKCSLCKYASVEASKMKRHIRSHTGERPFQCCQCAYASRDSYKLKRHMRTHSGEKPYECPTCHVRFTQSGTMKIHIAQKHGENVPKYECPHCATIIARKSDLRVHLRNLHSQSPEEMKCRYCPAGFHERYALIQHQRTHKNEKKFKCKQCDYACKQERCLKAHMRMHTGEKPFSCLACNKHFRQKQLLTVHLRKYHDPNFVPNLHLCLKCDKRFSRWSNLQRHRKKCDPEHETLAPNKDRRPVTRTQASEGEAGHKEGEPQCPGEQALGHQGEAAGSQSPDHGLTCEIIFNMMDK

Experiment [5] deals with T5, CTCF with alanine substitution of KTYQR, N(23–27), GFP fusion (F3H) (mouse) (UniProt Q61164).
T5 sequence: T2 sequence with K23A, T24A, Y25A, Q26A, R27A

Changes are numbered by the printed parent chain. Results are given in words; binding and its absence hold for the method and conditions named. Some results given as binding are weak or reduced against the parent protein; the word gives no strength. Where a sequence is shown, tags or fusion partners need not be part of it.

B1: PDS5A (mouse), mKate2 fusion (protein, UniProt Q6A026 1-1332)
chain: MDFTQPKPATALCGVVSADGKIAYPPGVKEITDKITTDEMIKRLKMVVKTFMDMDQDSEDEKQQYLPLALHLASEFFLRNPNKDVRLLVACCLADIFRIYAPEAPYTSHDKLKDIFLFITRQLKGLEDTKSPQFNRYFYLLENLAWVKSYNICFELEDCNEIFIQLFRTLFSVINNSHNTKVQMHMLDLMSSIIMEGDGVTQELLDSILINLIPAHKNLNKQSFDLAKVLLKRTVQTIEACIANFFNQVLVLGRSSVSDLSEHVFDLIQELFAIDPQLLLSVMPQLEFKLKSNDGEERLAVVRLLAKLFGSKDSDLATQNRPLWQCFLGRFNDIHVPVRLESVKFASHCLMNHPDLAKDLTEYLKVRSHDPEEAIRHDVIVTIITAAKRDLALVNDQLLGFVRERTLDKRWRVRKEAMMGLAQLYKKYCLHGEAGKEAAEKVSWIKDKLLHIYYQNSIDDKLLVEKIFAQYLVPHNLETEERMKCLYYLYASLDPNAVKALNEMWKCQNMLRSHVRELLDLHKQPTSEANCSAMFGKLMTIAKNLPDPGKAQDFVKKFNQVLGDDEKLRSQLELLISPTCSCKQADVCVREIARKLANPKQPTNPFLEMVKFLLERIAPVHIDSEAISALVKLMNKSIEGTADDEEEGVSPDSAIRSGLELLKVLSFTHPTSFHSAETYESLLQCLRMEDDKVAEAAIQIFRNTGHKIETDLPQIRSTLIPILHQKAKRGTPHQAKQAVHCIHAIFSNKEVQLAQIFEPLSRSLNADVPEQLITPLVSLGHISMLAPDQFASPMKSVVANFIVKDLLMNDRSTGEKNGKLWSPDEEVSPEVLAKVYLLRLLVRWLLGMKNNQSKSANSTLRLLSAMLVSEGDLTEQKRISKSDMSRLRLAAGSAIMKLAQEPCYHEIITPEQFQLCALVINDECYQVRQIFAQKLHKALVKLLLPLEYMAIFALCAKDPVKERRAHARQCLLKNISIRREYIKQNPMATEKLLSLLPEYVVPYMIHLLAHDPDFTRSQDVDQLRDIKECLWFMLEVLMTKNENNSHAFMKKMAENIKLTRDAQSPDESKTNEKLYTVCDVALCVINSKSALCNADSPKDPVLPMKFFTQPEKDFCNDKSYISEETRVLLLTGKPKPTGVLGTVNKPLSATGRKPYVRSAGTETGSNINANSELSPSAGSRSREQSSEASETGVSENEENPVRIISVTPVKNIDTVKNKEINSDQSTQGNISSDRGKKRIVTAAGAENIQKPDEKVDESGPPAPSKPRRGRRPKSESQGNATKNDDLNKPVSKGRKRAAGSQESLEAGNAKAPKLQDGAKKAVPAERQIDLQR
Turning to B1, the binding result in experiment [1] is recorded as “no binding”; in experiment [2], “binds”; in experiment [3] it was “binds”; in experiment [4] it was “no binding”; in experiment [5], “no binding”.
